Experimental data: paper PMC4575093
No constants are given. Whether binding was seen depends on the method and setting. In cells and extracts the contact can be indirect. Some binding calls cover weakened binding; strength is not graded here. Where a sequence is shown, tags or fusion partners need not be part of it.

Legend:
Test in all cases: pull-down; purified GST fusion (10 μg GST-POR deletions; GST-H-rev107 deletion variants) as bait, partner in vitro transcribed and translated; 4°C for 2 h in 50 mM HEPES pH 7.4, 150 mM NaCl, 1 mM EDTA, 1 mM EGTA, 10% glycerol, 1% Triton X-100; western blot with anti-FLAG or anti-MYC; only the target purified
GST-POR_(1–603) (mouse) = biological target: T1, GST-POR_(1–603) (mouse) (UniProt P37040)
T1 sequence: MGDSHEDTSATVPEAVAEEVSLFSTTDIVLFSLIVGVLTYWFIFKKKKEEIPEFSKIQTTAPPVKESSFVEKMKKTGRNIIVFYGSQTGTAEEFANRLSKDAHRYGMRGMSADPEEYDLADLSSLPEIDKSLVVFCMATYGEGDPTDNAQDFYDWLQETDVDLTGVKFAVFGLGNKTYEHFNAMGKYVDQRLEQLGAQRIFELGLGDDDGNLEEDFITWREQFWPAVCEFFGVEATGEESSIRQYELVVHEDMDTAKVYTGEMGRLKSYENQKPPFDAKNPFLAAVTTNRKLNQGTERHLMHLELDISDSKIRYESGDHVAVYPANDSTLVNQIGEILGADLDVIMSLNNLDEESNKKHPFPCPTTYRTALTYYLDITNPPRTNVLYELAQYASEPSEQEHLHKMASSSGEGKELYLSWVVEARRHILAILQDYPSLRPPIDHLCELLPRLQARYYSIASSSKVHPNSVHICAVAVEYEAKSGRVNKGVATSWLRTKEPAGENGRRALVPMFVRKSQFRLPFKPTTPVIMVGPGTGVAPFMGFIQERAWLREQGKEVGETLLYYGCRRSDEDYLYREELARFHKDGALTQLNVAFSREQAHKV

GST-POR (mouse) = biological target: T2, GST-POR (mouse) (UniProt P37040)
T2 sequence: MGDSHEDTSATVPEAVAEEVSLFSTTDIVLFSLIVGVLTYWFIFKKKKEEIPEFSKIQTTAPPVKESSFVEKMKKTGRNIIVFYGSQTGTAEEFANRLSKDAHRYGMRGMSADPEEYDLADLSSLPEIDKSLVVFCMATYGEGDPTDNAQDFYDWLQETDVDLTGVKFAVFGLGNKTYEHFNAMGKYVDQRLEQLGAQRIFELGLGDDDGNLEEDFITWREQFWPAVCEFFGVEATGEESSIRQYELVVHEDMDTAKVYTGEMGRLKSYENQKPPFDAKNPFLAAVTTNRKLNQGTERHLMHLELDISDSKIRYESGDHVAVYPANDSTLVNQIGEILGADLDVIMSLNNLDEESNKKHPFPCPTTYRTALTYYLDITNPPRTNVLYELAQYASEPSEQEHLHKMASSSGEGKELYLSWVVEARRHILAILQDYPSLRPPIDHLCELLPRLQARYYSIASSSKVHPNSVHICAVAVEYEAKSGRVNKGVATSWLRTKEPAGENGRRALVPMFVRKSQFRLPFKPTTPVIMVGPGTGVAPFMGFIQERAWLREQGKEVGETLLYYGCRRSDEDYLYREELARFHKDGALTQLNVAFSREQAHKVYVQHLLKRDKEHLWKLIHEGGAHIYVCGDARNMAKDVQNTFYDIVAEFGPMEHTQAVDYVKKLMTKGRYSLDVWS

GST-POR_(1–430) (mouse) = biological target: T3, GST-POR_(1–430) (mouse) (UniProt P37040)
T3 sequence: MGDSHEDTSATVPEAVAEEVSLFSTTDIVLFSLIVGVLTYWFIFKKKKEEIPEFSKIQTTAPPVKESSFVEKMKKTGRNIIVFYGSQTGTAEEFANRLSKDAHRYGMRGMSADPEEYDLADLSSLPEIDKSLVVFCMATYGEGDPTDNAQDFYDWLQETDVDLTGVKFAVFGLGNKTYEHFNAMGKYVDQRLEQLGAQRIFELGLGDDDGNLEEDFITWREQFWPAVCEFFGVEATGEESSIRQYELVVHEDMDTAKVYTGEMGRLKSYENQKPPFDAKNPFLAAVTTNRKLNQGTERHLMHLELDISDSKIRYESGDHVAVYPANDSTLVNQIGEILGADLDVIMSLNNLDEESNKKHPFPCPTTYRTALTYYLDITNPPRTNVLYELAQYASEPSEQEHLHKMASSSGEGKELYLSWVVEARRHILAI

B1: H-rev107-MYC, in vitro transcribed and translated (protein, UniProt Q8R3U1 1-162)
chain: MLAPIPEPKPGDLIEIFRPMYRHWAIYVGDGYVIHLAPPSEIAGAGAASIMSALTDKAIVKKELLCHVAGKDKYQVNNKHDEEYTPLPLSKIIQRAERLVGQEVLYRLTSENCEHFVNELRYGVPRSDQVRDAVKAVGIAGVGLAALGLVGVMLSRNKKQKQ
For B1, the binding (GST-POR_(1–603) (mouse)) was “binds”, the binding (GST-POR (mouse)) was “binds” and the binding (GST-POR_(1–430) (mouse)) was “no binding (tested: 10 μg GST-POR deletions)”.
